Drawing on article PMC5636987, this text covers binding for two molecules.

These are yes or no findings as the source states them, for the method shown. In cells and extracts the contact can be indirect. Some entries that bind do so weakly or less than the wild type. Where a sequence is shown, tags or fusion partners need not be part of it.

The target of experiment [1] is T1, Flag-TAB1 (human (from the RefSeq entry)) (UniProt Q15750).
T1 sequence: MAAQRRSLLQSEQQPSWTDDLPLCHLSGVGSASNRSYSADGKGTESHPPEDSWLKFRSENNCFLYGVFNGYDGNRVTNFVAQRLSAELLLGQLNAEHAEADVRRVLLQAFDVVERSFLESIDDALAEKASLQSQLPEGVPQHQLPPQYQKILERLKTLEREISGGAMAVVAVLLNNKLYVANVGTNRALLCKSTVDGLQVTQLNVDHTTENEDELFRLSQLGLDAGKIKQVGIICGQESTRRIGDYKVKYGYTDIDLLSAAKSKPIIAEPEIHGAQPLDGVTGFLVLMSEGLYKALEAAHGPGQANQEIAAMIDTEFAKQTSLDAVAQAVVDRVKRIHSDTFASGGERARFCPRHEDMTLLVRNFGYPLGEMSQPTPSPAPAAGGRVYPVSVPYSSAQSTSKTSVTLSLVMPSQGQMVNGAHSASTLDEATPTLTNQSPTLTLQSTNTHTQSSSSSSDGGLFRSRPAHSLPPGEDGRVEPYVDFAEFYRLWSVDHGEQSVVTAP
Briefly: co-IP; Flag-TAK1 or TAB1 immunoprecipitates probed for GST-POPX2 (Supplementary Figure S1b).

Experiment [2] has as its target T2, Flag-TAK1 (human (from the RefSeq entry)) (UniProt O43318).
T2 sequence: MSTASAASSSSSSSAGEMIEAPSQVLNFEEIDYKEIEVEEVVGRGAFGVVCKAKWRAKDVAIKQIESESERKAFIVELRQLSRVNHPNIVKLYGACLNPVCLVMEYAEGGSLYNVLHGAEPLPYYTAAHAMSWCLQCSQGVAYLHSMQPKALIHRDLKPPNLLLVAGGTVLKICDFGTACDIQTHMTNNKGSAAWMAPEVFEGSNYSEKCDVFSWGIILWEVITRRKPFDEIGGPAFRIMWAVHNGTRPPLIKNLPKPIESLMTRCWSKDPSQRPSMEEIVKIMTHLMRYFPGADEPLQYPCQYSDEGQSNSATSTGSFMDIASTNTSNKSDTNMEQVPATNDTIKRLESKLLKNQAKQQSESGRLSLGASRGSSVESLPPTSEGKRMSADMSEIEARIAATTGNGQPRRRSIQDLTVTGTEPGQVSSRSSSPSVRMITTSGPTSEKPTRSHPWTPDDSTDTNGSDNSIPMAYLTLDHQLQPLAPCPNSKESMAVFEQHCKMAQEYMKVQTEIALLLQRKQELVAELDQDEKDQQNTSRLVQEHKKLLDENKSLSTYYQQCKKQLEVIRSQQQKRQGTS
Described as above.

In experiment [3] the target is T3, GST-TAB1 (bacterially expressed) (human (from the RefSeq entry)) (UniProt Q15750).
T3 sequence: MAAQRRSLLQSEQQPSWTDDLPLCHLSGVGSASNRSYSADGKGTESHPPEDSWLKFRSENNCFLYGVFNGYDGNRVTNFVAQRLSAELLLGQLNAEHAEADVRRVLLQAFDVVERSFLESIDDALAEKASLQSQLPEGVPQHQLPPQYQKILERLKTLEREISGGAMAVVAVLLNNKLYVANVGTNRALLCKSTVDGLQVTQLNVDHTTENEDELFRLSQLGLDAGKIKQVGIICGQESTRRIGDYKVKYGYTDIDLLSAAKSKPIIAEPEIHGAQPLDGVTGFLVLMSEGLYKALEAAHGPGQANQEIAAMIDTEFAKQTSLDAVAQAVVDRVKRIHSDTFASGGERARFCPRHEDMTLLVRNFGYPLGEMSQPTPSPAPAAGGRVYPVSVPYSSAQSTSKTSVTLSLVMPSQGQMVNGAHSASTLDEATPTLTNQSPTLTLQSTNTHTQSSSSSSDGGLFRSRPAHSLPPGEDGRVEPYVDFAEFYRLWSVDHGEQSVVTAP
Briefly: pull-down; bacterially expressed His-POPX2 or His-POPX2m incubated with GST fusion proteins bound to glutathione beads; stringent wash (three times) with 25 mM Tris pH 7.4, 300 mM NaCl, 1% Triton X-100, 1 mM EDTA; Western blot; purification of the His proteins not told. A general note: A western blot detects proteins with antibodies after separation by electrophoresis.

In experiment [4] the target is T4, GST-TAK1 (bacterially expressed) (human (from the RefSeq entry)) (UniProt O43318).
T4 sequence: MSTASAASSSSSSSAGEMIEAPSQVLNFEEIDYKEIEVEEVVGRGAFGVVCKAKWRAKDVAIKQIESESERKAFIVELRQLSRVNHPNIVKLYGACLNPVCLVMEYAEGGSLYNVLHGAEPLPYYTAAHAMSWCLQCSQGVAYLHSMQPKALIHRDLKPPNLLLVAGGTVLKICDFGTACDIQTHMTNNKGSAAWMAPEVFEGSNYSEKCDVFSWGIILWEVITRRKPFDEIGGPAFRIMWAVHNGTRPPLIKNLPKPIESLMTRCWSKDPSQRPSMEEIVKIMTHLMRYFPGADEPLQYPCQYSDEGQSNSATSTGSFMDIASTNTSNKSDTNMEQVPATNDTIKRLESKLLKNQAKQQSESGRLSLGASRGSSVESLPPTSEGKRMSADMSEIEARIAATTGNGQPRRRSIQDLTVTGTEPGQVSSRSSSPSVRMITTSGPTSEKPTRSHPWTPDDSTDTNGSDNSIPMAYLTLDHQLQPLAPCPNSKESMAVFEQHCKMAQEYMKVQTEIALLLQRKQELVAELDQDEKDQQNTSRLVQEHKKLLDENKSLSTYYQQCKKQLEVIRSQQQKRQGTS
The experiment is described as above.

B1: GST-POPX2 (enzyme, UniProt P49593 1-454)
chain: MSSGAPQKSSPMASGAEETPGFLDTLLQDFPALLNPEDPLPWKAPGTVLSQEEVEGELAELAMGFLGSRKAPPPLAAALAHEAVSQLLQTDLSEFRKLPREEEEEEEDDDEEEKAPVTLLDAQSLAQSFFNRLWEVAGQWQKQVPLAARASQRQWLVSIHAIRNTRRKMEDRHVSLPSFNQLFGLSDPVNRAYFAVFDGHGGVDAARYAAVHVHTNAARQPELPTDPEGALREAFRRTDQMFLRKAKRERLQSGTTGVCALIAGATLHVAWLGDSQVILVQQGQVVKLMEPHRPERQDEKARIEALGGFVSHMDCWRVNGTLAVSRAIGDVFQKPYVSGEADAASRALTGSEDYLLLACDGFFDVVPHQEVVGLVQSHLTRQQGSGLRVAEELVAAARERGSHDNITVMVVFLRDPQELLEGGNQGEGDPQAEGRRQDLPSSLPEPETQAPPRS
In the case of B1, the binding result in experiment [1] was “no binding”; in experiment [2], “binds”.

B2: His-POPX2 (enzyme, UniProt P49593 1-454)
chain: MSSGAPQKSSPMASGAEETPGFLDTLLQDFPALLNPEDPLPWKAPGTVLSQEEVEGELAELAMGFLGSRKAPPPLAAALAHEAVSQLLQTDLSEFRKLPREEEEEEEDDDEEEKAPVTLLDAQSLAQSFFNRLWEVAGQWQKQVPLAARASQRQWLVSIHAIRNTRRKMEDRHVSLPSFNQLFGLSDPVNRAYFAVFDGHGGVDAARYAAVHVHTNAARQPELPTDPEGALREAFRRTDQMFLRKAKRERLQSGTTGVCALIAGATLHVAWLGDSQVILVQQGQVVKLMEPHRPERQDEKARIEALGGFVSHMDCWRVNGTLAVSRAIGDVFQKPYVSGEADAASRALTGSEDYLLLACDGFFDVVPHQEVVGLVQSHLTRQQGSGLRVAEELVAAARERGSHDNITVMVVFLRDPQELLEGGNQGEGDPQAEGRRQDLPSSLPEPETQAPPRS
With B2, the values for the binding entry in experiment [3] and in experiment [4] were “no binding” and “binds”, respectively.
